For 167 variants, self-cleavage results are on record in the RNAGym collection of RNA variant scans (doi:10.7554/elife.90254).

B1: LINE1-mini (parent)
chain: GGCAGAGCUCAACACAGCGUGGCAAAGUGGCUGUGGCUAGACUGCC

The source gives no read counts; variants with many changes may rest on few reads.

In the series the parent is B1. Description: self-cleavage, relative activity (ratio to wild type); higher = more cleavage; in vitro, sequencing; the parent is a self-cleaving ribozyme.
Consider G5U A6C C18U C46G, for which the self-cleavage worked out at 0.02. As to G5U A16G C42U, the self-cleavage came out at 0.

As to G5U C8G G17U, the self-cleavage came to 0.24.

With G5U A6C G7A A25U, the self-cleavage amounted to 0.09. Turning to G5U A26C U38A, the self-cleavage worked out at 0.07. As for G5U A16U U38G, the self-cleavage was determined as 0.03. As for G5U A16C G30U C42U, the self-cleavage amounted to 0.01.

Regarding G5U A11U C18A, the self-cleavage came to 0.03. For the variant G5U C8A A16C U34A G36U A39G, the self-cleavage was found to be 0.49. With G5U A12U G22C, the self-cleavage worked out at 0.04. As for G5U A41U C46U, the self-cleavage worked out at 0.05. On to G5U A25C G40C, for which the self-cleavage came to 0.03.

Turning to G5U A12U G27U, the self-cleavage stood at 0.09. As for G5U A11U C13U A16C U28C G30A, the figure is 0.03.

Regarding G5U C8A A24G C46G, the self-cleavage turned out to be 0.54. The figure for G5U A12C G17U G44U is 0.01.

Take G5U A6G G19A C23A C31G: the self-cleavage stood at 0.03. As for G5U A11U G36A U38A A41C C42G U43A, the figure is 0. On to G5U A14U G19U U28G U32A U34A U43G G44U, for which the self-cleavage came to 0.02. G5U A11C G17A G30U G40C: the self-cleavage was 0.01. Turning to G5U A12G G36U, the self-cleavage was 0.01. Take G5U C8G G22C G36U: the self-cleavage was 0.03. With G5U A6C A39C, the self-cleavage stood at 0. In the case of G5U A12G C15G A26C C31A C37G, the self-cleavage is 0.04. As for G5U A24G G27U C31U, the figure is 0.04. G5U A25U U34G G36C: the self-cleavage was 0.04. As for G5U A16C G17C U20A G21U C23G, the figure is 0.06.

On to G5U A6U G19A, for which the self-cleavage was 0.52. On to G5U A24U C37U U38C, for which the self-cleavage came to 0.01. The figure for G5U A16U C23G U28A G36U is 0.03; for G5U A6C G35U G40C it is 0.09. On to G5U C8A C45G, for which the self-cleavage was determined as 0.58. Consider G5U A26C U43C, for which the self-cleavage worked out at 0.01. G5U A14C C37A U43A: the self-cleavage came to 0.16.

In the case of G5U A12G C18U, the self-cleavage worked out at 0.01. The figure for G5U A14G G17U A41U U43A is 0.08; for G5U A11G U34C it is 0.06. With G5U A26G C31A, the self-cleavage is 0.04. G5U A12U A24G C42G: the self-cleavage came to 0.01. As to G5U A6U C8U C18A G21A A24C A41C, the self-cleavage was 0.24. In the case of G5U A14G C45G, the self-cleavage amounted to 0.13. In the case of G5U A14U C31A, the self-cleavage came to 0.01. For the variant G5U A14U C31U, the self-cleavage amounted to 0.01. As to G5U A6C G21C G29C G35A C45U, the self-cleavage was 0.05.

In the case of G5U A25U G27A, the self-cleavage was 0.06. As for G5U A12G C18A A25U G29A G35U, the figure is 0.02; as for G5U A12U U43C C45A, 0.05. Consider G5U A16U C42A, for which the self-cleavage came to 0.01. As to G5U C8G C18U A24C U32C U43G C45U, the self-cleavage amounted to 0.02. For the variant G5U A26U C42U, the self-cleavage came out at 0.03. With G5U A11U C15A G19C A41C, the self-cleavage is 0.01. Regarding G5U A24G G44U, the self-cleavage was 0.09.

For the variant G5U A12C A14U U20A C37U, the self-cleavage came to 0.01. Regarding G5U A6G A16C, the self-cleavage was determined as 0.05. On to G5U A26U U43C, for which the self-cleavage was 0.04. G5U A14G G40U: the self-cleavage is 0.06. For G5U A14G U34C, the self-cleavage worked out at 0.28.

On to G5U A6U G7U U9A, for which the self-cleavage turned out to be 0.11. G5U A14G C15U C23U: the self-cleavage amounted to 0.08. Consider G5U A24G U43G, for which the self-cleavage was 0. As for G5U C8A U9A G21U U32C C46G, the self-cleavage worked out at 0.02. With G5U A39C C46A, the self-cleavage is 0.

As for G5U A39C C46U, the self-cleavage was determined as 0.05. For the variant G5U A26C A41U C45G, the self-cleavage is 0.02. For G5U A6U C10G G19U, the self-cleavage came to 0.01. The figure for G5U A26C G27C G35U is 0.02. G5U A16C A25U A39C C42U: the self-cleavage came out at 0.

In the case of G5U A16G G27C G35A C45U, the self-cleavage was determined as 0.02. G5U A14C G27C: the self-cleavage was determined as 0.01. Take G5U A25G G44A: the self-cleavage stood at 0.17. For the variant G5U A6C G19C G35C, the self-cleavage is 0.07. In the case of G5U A11G C18G, the self-cleavage stood at 0.01.

For the variant G5U A6U A24U G27U U38A, the self-cleavage is 0.06.

As to G5U A12C C13U G17U C42U U43C, the self-cleavage turned out to be 0.01.

As to G5C U38C A39G C45A, the self-cleavage came out at 0.03. The figure for G5U C8G C31A is 0.07; for G5U C8A A16U U38G it is 0.08; for G5U A12C A24U A41G it is 0.04.

For G5U A16U U20G G44U, the self-cleavage came out at 0.02. For the variant G5U A12C G21U U34C U38C, the self-cleavage stood at 0.01. G5U A6U U20G: the self-cleavage worked out at 0.08.

For G5U A6G G27U G30A, the self-cleavage worked out at 0.11. As for G5U A39U C42A U43G, the self-cleavage came to 0.08. In the case of G5U A11C G22U A24U G36U C45G, the self-cleavage was found to be 0.01. Turning to G5U A16U G19U C23U A26C, the self-cleavage is 0.07. Turning to G5U A14U G33U U43A, the self-cleavage was determined as 0.06. As for G5U A14G A25C, the figure is 0.05; as for G5U A14G G17U, 0.09. With G5U A12U U20G, the self-cleavage stood at 0.02. For G5U A11U U43A C46U, the self-cleavage was 0. With G5U A12U C18A, the self-cleavage was 0.12.

Regarding G5U A11C C13U G27U G29A G30U, the self-cleavage is 0.01. For the variant G5U A6C C10G G17U G44C, the self-cleavage came to 0. With G5U A6U C13G U38A C45A, the self-cleavage was 0.05. In the case of G5U C8A U43A, the self-cleavage stood at 0.05. In the case of G5U C8A U43C, the self-cleavage was found to be 0.71.

As to G5U A11C A12U U20C, the self-cleavage was found to be 0.02. In the case of G5U A12G C37U, the self-cleavage was determined as 0.01.

Consider G5U A14U A41U C42A, for which the self-cleavage amounted to 0.04.

With G5C U34G C42G, the self-cleavage stood at 0.03. For the variant G5U A11U C42U, the self-cleavage was found to be 0.03. With G5U A11G G21C G27A, the self-cleavage worked out at 0.01. The figure for G5U A11U C23A U32G A41U is 0.01; for G5U A16U G21C it is 0.05. As for G5U C8A U28G, the figure is 0.19; as for G5U A39G C45A, 0.03. As for G5U C8A C13A G40A, the self-cleavage was 0.47. As for G5U A26U C37U G44C, the self-cleavage was 0.04. The figure for G5U A25U G36A is 0.05. Regarding G5U A14G G17A C18A C23U A24U, the self-cleavage was determined as 0.03. For the variant G5U A11U G22C C23U U34G, the self-cleavage turned out to be 0.01. For G5U A25C U43G, the self-cleavage amounted to 0.05. The figure for G5U C8G C15U U32A G35A G36A G40C is 0.03; for G5U A11U C31G it is 0.02.

As to G5U A11C C13A G30U G40C, the self-cleavage was determined as 0.02. Consider G5U A14U G19C G30C, for which the self-cleavage worked out at 0.08. As for G5U A12G U20A A26C C37A G40U, the figure is 0.03; as for G5U A25C U32G G35A, 0.01; as for G5U A16G A26G, 0.01.

In the case of G5U A11G U32A U34C, the self-cleavage amounted to 0.01. Take G5U A6C C18A C42A: the self-cleavage worked out at 0.03.

For the variant G5U A6U A41C, the self-cleavage turned out to be 0.15. As for G5U A14C G44U, the figure is 0.02. Consider G5U C8A C13U A39G C46A, for which the self-cleavage was determined as 0.47. As for G5U A24G C37U C46A, the self-cleavage stood at 0.03. As for G5U A14G A25U U32G, the self-cleavage came out at 0.03.

G5U A16G A24G C31U: the self-cleavage was determined as 0.03. As for G5U C8A G35U C37A, the figure is 0.13; as for G5U A16G G44A, 0.02. For the variant G5U A11U G22A A24C A39U C42U U43G, the self-cleavage was found to be 0. The figure for G5U C8A G30A C45A is 0.44. For the variant G5U A16G G19U U28G, the self-cleavage worked out at 0.02. As for G5U C8G A16G A25C, the figure is 0.1; as for G5C U38A C42A, 0.03.

Regarding G5U A11G U34A G40U, the self-cleavage was 0.01. As for G5U A12U G21C C42A, the self-cleavage was found to be 0.53. For G5U A6U C37A C42U, the self-cleavage stood at 0.06. As for G5U A25U A41G, the self-cleavage came to 0.06. The figure for G5U A12U C23A is 0.03; for G5U A12U G44C C45U it is 0.09; for G5U A11U U43C C46G it is 0.03. G5U A6G C8U G27U: the self-cleavage came to 0.77. As for G5U A6G G22C G27C, the figure is 0.05; as for G5U A6G G22C G27A, 0.03; as for G5U C8G C15U, 0.02. For the variant G5U A11U C15U G30C U43G C45U, the self-cleavage turned out to be 0. Turning to G5U A16U C31A U34A C45U, the self-cleavage was determined as 0.02. Consider G5U A16U G21U G35A, for which the self-cleavage turned out to be 0.01. As for G5U A12G G27C, the self-cleavage amounted to 0.02.

Take G5U A11U A25G A41C: the self-cleavage amounted to 0.01.

As to G5U A6U U28C, the self-cleavage amounted to 0.17.

Regarding G5U A16G G29U, the self-cleavage worked out at 0.29. On to G5U A12U G44C, for which the self-cleavage amounted to 0.12. For G5U A25C U43G C45G, the self-cleavage came out at 0.02. As for G5U A12C G22C A26G, the figure is 0.02; as for G5U C8A C13A A39G, 0.15; as for G5U C8G C13U G35U, 0.08.

Take G5U A12G C42U: the self-cleavage was found to be 0.04. As for G5U A6C G29U G35A, the self-cleavage was found to be 0.22.

Consider G5U C8A C13G C18U G22C G36C A39G, for which the self-cleavage was 0.1. The figure for G5U A24C A39G is 0.11; for G5U A16U U20A it is 0.01. As for G5C U38A C45U, the self-cleavage worked out at 0.05. Turning to G5U A11C U38G C46G, the self-cleavage was determined as 0.02. G5U A14C C37U: the self-cleavage was 0.03. As to G5U A16U C18A G21C, the self-cleavage stood at 0.01. Regarding G5U C8A C23A, the self-cleavage turned out to be 0.12.
